A lower IC50 marks a more sensitive line; a limit (>, <) means that the fit lies beyond the doses tested. AUC is the area under the same curve over the 256-fold range up to the top dose, as a fraction; values near 1 show little effect. For some of these results: Any top dose called inferred comes from the curve model; the source does not state it. For some of these results: Where an entry number is given, a second screen of the drug exists; the two often differ.
Assays:
Experiment in all cases: Viability of human cancer cell lines after 72 h of drug (GDSC screen)
[1] = compound: Nc1ccc(C(=O)Nc2cccc(-c3nc(N4CCOCC4)c4oc5ncccc5c4n3)c2)cn1 [YM201636]; settings: top dose 5.12 µM; top dose inferred
Description: (§1)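 Human cancer cell lines in 384-well plates, medium with 10% serum, drug for 72 h over a 256-fold dose range (nine 2-fold or five 4-fold steps up to the top dose). Adherent lines were fixed and stained with the nucleic acid dye Syto60, suspension lines read with resazurin; signal relative to control wells, capped at 0 and 100%. One two-parameter sigmoid per drug and line, fitted in a mixed model over all curves with the slope shared within a line.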

[2] = compound: Cn1cnc2c(F)c(Nc3ccc(Br)cc3Cl)c(C(=O)NOCCO)cc21 [AZD6244]; settings: top dose 4 µM; screen: GDSC drug entry 1498; top dose inferred
Description: as §1

[3] = compound: NC(=O)C1CCCc2c1[nH]c1ccc(Cl)cc21 [EX-527]; settings: top dose 20 µM
Description: as §1

[4] = compound: N#CC(c1ccnc(NCCc2cccnc2)n1)c1nc2ccccc2s1 [AS601245]; settings: top dose 8 µM; top dose inferred
Description: as §1

Cell Line | AUC [1] | IC50 [1] | AUC [2] | IC50 [2] | AUC [3] | IC50 [3] | AUC [4] | IC50 [4]
KARPAS-620 (haematopoietic neoplasm, suspension) | 0.732 | 1.3 µM | 0.442 | 0.178 µM | 0.991 | > 20 µM | 0.844 | 4.58 µM
KLE (endometrium, adherent) | 0.849 | > 5.12 µM | 0.935 | > 4 µM | 0.978 | > 20 µM | 0.73 | 3.33 µM
KMH-2 (thyroid, adherent) | 0.99 | > 5.12 µM | 0.452 | 0.188 µM | 0.976 | > 20 µM | 0.809 | 3.64 µM
KMRC-1 (kidney, adherent) | 0.94 | > 5.12 µM | 0.84 | 3 µM | 0.984 | > 20 µM | 0.96 | > 8 µM
KMRC-20 (kidney, adherent) | 0.984 | > 5.12 µM | 0.943 | > 4 µM | 0.985 | > 20 µM | 0.967 | > 8 µM
KON (head and neck, adherent) | 0.987 | > 5.12 µM | 0.95 | > 4 µM | 0.983 | > 20 µM | 0.747 | 2.5 µM
KOSC-2 (head and neck, adherent) | 0.955 | > 5.12 µM | 0.813 | 2.29 µM | 0.985 | > 20 µM | 0.982 | > 8 µM
KP-2 (pancreas, adherent) | 0.97 | > 5.12 µM | 0.473 | 0.21 µM | 0.985 | > 20 µM | 0.777 | 3.5 µM
KP-3 (pancreas, adherent) | 0.916 | > 5.12 µM | 0.8 | 2.38 µM | 0.984 | > 20 µM | 0.873 | > 8 µM
KP-4 (pancreas, adherent) | 0.986 | > 5.12 µM | 0.987 | > 4 µM | 0.988 | > 20 µM | 0.819 | 4.32 µM
KU-19-19 (bladder, adherent) | 0.987 | > 5.12 µM | 0.544 | 0.329 µM | 0.982 | > 20 µM | 0.986 | > 8 µM
KYSE-50 (oesophagus, adherent) | 0.92 | > 5.12 µM | 0.985 | > 4 µM | 0.979 | > 20 µM | 0.789 | 3.22 µM
KYSE-70 (oesophagus, adherent) | 0.958 | > 5.12 µM | 0.981 | > 4 µM | 0.985 | > 20 µM | 0.817 | 5.01 µM
KYSE-150 (oesophagus, adherent) | 0.973 | > 5.12 µM | 0.979 | > 4 µM | 0.987 | > 20 µM | 0.941 | > 8 µM
KYSE-180 (oesophagus, adherent) | 0.953 | > 5.12 µM | 0.934 | > 4 µM | 0.983 | > 20 µM | 0.798 | 3.62 µM
KYSE-220 (oesophagus, adherent) | 0.927 | > 5.12 µM | 0.824 | 2.56 µM | 0.985 | > 20 µM | 0.927 | > 8 µM
KYSE-270 (oesophagus, adherent) | 0.92 | > 5.12 µM | 0.954 | > 4 µM | 0.989 | > 20 µM | 0.802 | 3.28 µM
KYSE-510 (oesophagus, adherent) | 0.959 | > 5.12 µM | 0.971 | > 4 µM | 0.992 | > 20 µM | 0.823 | 3.71 µM
KYSE-520 (oesophagus, adherent) | 0.946 | > 5.12 µM | 0.882 | > 4 µM | 0.981 | > 20 µM | 0.973 | > 8 µM
LC-1-sq (lung squamous cell carcinoma, adherent) | 0.971 | > 5.12 µM | 0.976 | > 4 µM | 0.983 | > 20 µM | 0.956 | > 8 µM
LCLC-97TM1 (large cell lung carcinoma, adherent) | 0.865 | > 5.12 µM | 0.806 | 2.27 µM | 0.982 | > 20 µM | 0.717 | 2.21 µM

Cell Line | AUC [1] | IC50 [1] | AUC [2] | IC50 [2] | AUC [3] | IC50 [3] | AUC [4] | IC50 [4]
LCLC-103H (large cell lung carcinoma, adherent) | 0.915 | > 5.12 µM | 0.99 | > 4 µM | 0.988 | > 20 µM | 0.727 | 2.05 µM
LK-2 (lung squamous cell carcinoma, adherent) | 0.862 | 3.99 µM | 0.988 | > 4 µM | 0.989 | > 20 µM | 0.773 | 2.93 µM
LN-18 (glioma, adherent) | 0.994 | > 5.12 µM | 0.993 | > 4 µM | 0.993 | > 20 µM | 0.888 | 6.01 µM
LN-405 (glioma, adherent) | 0.949 | > 5.12 µM | 0.95 | > 4 µM | 0.983 | > 20 µM | 0.873 | > 8 µM
LNCaP-Clone-FGC (prostate, adherent) | 0.788 | 2.6 µM | 0.97 | > 4 µM | 0.983 | > 20 µM | 0.842 | 6.84 µM
LNZTA3WT4 (glioma, adherent) | 0.961 | > 5.12 µM | 0.944 | > 4 µM | 0.988 | > 20 µM | 0.946 | > 8 µM
LOU-NH91 (lung squamous cell carcinoma, adherent) | 0.959 | > 5.12 µM | 0.887 | > 4 µM | 0.986 | > 20 µM | 0.883 | > 8 µM
LS-180 (large intestine, adherent) | 0.984 | > 5.12 µM | 0.608 | 0.516 µM | 0.982 | > 20 µM | 0.856 | 7.94 µM
LU-99A (large cell lung carcinoma, adherent) | 0.86 | 4.2 µM | 0.921 | > 4 µM | 0.987 | > 20 µM | 0.892 | > 8 µM
LU-135 (small cell lung carcinoma, suspension) | 0.871 | 3.49 µM | 0.987 | > 4 µM | 0.992 | > 20 µM | 0.725 | 1.9 µM
LoVo (large intestine, adherent) | 0.966 | > 5.12 µM | 0.873 | 3.91 µM | 0.987 | > 20 µM | 0.729 | 2.26 µM
M14 (melanoma, adherent) | 0.807 | 2.79 µM | 0.272 | 0.054 µM | 0.985 | > 20 µM | 0.892 | > 8 µM
M059J (glioma, adherent) | 0.955 | > 5.12 µM | 0.951 | > 4 µM | 0.961 | > 20 µM | 0.737 | 2.53 µM
MC-IXC (neuroblastoma, adherent) | 0.933 | 4.57 µM | 0.994 | > 4 µM | 0.996 | > 20 µM | 0.869 | 4.28 µM
MCF7 (breast, adherent) | 0.986 | > 5.12 µM | 0.982 | > 4 µM | 0.982 | > 20 µM | 0.641 | 1.25 µM
MDA-MB-157 (breast, adherent) | 0.938 | > 5.12 µM | 0.986 | > 4 µM | 0.985 | > 20 µM | 0.789 | 3.63 µM
MDA-MB-175-VII (breast, adherent) | 0.922 | > 5.12 µM | 0.977 | > 4 µM | 0.987 | > 20 µM | 0.909 | > 8 µM
MDA-MB-231 (breast, adherent) | 0.986 | > 5.12 µM | 0.839 | 2.97 µM | 0.975 | > 20 µM | 0.87 | > 8 µM
MDA-MB-330 (breast, adherent) | 0.897 | > 5.12 µM | 0.975 | > 4 µM | 0.985 | > 20 µM | 0.827 | 5.81 µM
MDA-MB-361 (breast, adherent) | 0.846 | 3.69 µM | 0.967 | > 4 µM | 0.984 | > 20 µM | 0.809 | 4.14 µM
MDA-MB-415 (breast, adherent) | 0.966 | > 5.12 µM | 0.933 | > 4 µM | 0.979 | > 20 µM | 0.878 | > 8 µM

Cell Line | AUC [1] | IC50 [1] | AUC [2] | IC50 [2] | AUC [3] | IC50 [3] | AUC [4] | IC50 [4]
MDA-MB-436 (breast, adherent) | 0.911 | > 5.12 µM | 0.877 | > 4 µM | 0.98 | > 20 µM | 0.895 | > 8 µM
MDA-MB-453 (breast, adherent) | 0.803 | 2.89 µM | 0.984 | > 4 µM | 0.972 | > 20 µM | 0.928 | > 8 µM
MDA-MB-468 (breast, adherent) | 0.934 | > 5.12 µM | 0.986 | > 4 µM | 0.969 | > 20 µM | 0.922 | > 8 µM
ME-180 (cervix, adherent) | 0.836 | 3.62 µM | 0.876 | > 4 µM | 0.985 | > 20 µM | 0.951 | > 8 µM
MEL-JUSO (melanoma, adherent) | 0.931 | > 5.12 µM | 0.592 | 0.46 µM | 0.982 | > 20 µM | 0.741 | 2.69 µM
MES-SA (uterus, adherent) | 0.992 | > 5.12 µM | 0.965 | > 4 µM | 0.99 | > 20 µM | 0.869 | 5.57 µM
MFE-280 (endometrium, adherent) | 0.805 | 3.45 µM | 0.98 | > 4 µM | 0.947 | > 20 µM | 0.944 | > 8 µM
MFE-296 (endometrium, adherent) | 0.935 | > 5.12 µM | 0.957 | > 4 µM | 0.979 | > 20 µM | 0.79 | 3.87 µM
MFE-319 (endometrium, adherent) | 0.953 | > 5.12 µM | 0.919 | > 4 µM | 0.989 | > 20 µM | 0.677 | 1.54 µM
MG-63 (osteosarcoma, adherent) | 0.984 | > 5.12 µM | 0.845 | 3.61 µM | 0.979 | > 20 µM | 0.777 | 3.74 µM
MHH-ES-1 (Ewing sarcoma, adherent) | 0.647 | 0.813 µM | 0.961 | > 4 µM | 0.985 | > 20 µM | 0.831 | 4.98 µM
MIA-PaCa-2 (pancreas, adherent) | 0.975 | > 5.12 µM | 0.782 | 1.84 µM | 0.984 | > 20 µM | 0.611 | 1.04 µM
MKN1 (stomach, adherent) | 0.943 | > 5.12 µM | 0.894 | > 4 µM | 0.985 | > 20 µM | 0.759 | 2.93 µM
MKN45 (stomach, adherent) | 0.929 | > 5.12 µM | 0.903 | > 4 µM | 0.98 | > 20 µM | 0.893 | > 8 µM
ML-1 (thyroid, adherent) | 0.882 | > 5.12 µM | 0.893 | > 4 µM | 0.984 | > 20 µM | 0.692 | 1.92 µM
MOG-G-CCM (glioma, adherent) | 0.851 | 4.98 µM | 0.948 | > 4 µM | 0.973 | > 20 µM | 0.816 | 5.42 µM
MOG-G-UVW (glioma, adherent) | 0.956 | > 5.12 µM | 0.894 | > 4 µM | 0.985 | > 20 µM | 0.853 | 5.97 µM
MS751 (cervix, adherent) | 0.978 | > 5.12 µM | 0.916 | > 4 µM | 0.99 | > 20 µM | 0.878 | 7.03 µM
Mewo (melanoma, adherent) | 0.973 | > 5.12 µM | 0.768 | 1.79 µM | 0.979 | > 20 µM | 0.941 | > 8 µM
NCI-H23 (lung adenocarcinoma, adherent) | 0.946 | > 5.12 µM | 0.956 | > 4 µM | 0.987 | > 20 µM | 0.954 | > 8 µM

— the supplement of paper PMC4967469
